# In all, about 2,900 compounds were measured (“IRF Lucia reporter activity, fold change vs agonist alone”: median about 0.9, highest 2% from about 2.8 on). Some of the results follow.
# Legend:
# RAW-Dual [1] = experiment: IRF Lucia reporter activity, fold change vs agonist alone; cytotoxicity flag (confluency mask): not cytotoxic; higher = enhanced IRF activity
# Summary of the method: (§1)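 After 50 nL of library stock was delivered by pin tool to RAW-Dual macrophages (50,000 cells/well, DMEM, 384-well plates), a PRR agonist was added 1 h later and the plates were kept at 37 °C, 5% CO2. Twenty hours later, IRF was read from supernatant by QuantiLuc luminescence and NF-κB by QuantiBlue absorbance at 620 nm. Reporter activity is stated as fold change over agonist-alone wells. Wells with IncuCyte confluency under 70% of agonist controls in both mask sets were counted as cytotoxic.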
# RAW-Dual [2] = experiment: IRF Lucia reporter activity, fold change vs agonist alone; higher = enhanced IRF activity; settings: cytotoxicity flag (confluency mask): not cytotoxic, agonist: MPLA (TLR4) […]
# Summary of the method: as §1
# RAW-Dual [3] = experiment: IRF Lucia reporter activity, fold change vs agonist alone; cytotoxicity flag (confluency mask): cytotoxic (confluency <70% of control); higher = enhanced IRF activity
# Summary of the method: as §1
# [4] = agonist: 3'3'-cGAMP (STING) 10 ug/mL
# [5] = library stock concentration (final ~1000-fold dilution): 10 mM water
# [6] = library stock concentration (final ~1000-fold dilution): 10 mM
smiles,measurement,setting,value
O=C1CCC(N2Cc3c(OCc4ccc(CN5CCOCC5)cc4)cccc3C2=O)C(=O)N1 (stereo not given) (library stock concentration (final ~1000-fold dilution): 10 mM),IRF Lucia reporter activity,RAW-Dual [1]; [4],1.05
same,IRF Lucia reporter activity,RAW-Dual [1]; agonist: LPS (TLR4) 0.1 ug/mL,1.02
O=C(O)C1(C(=O)O)CCC1.[NH2-].[NH2-].[Pt+2],IRF Lucia reporter activity,RAW-Dual [2]; [5],1.14
O=C(O)C1(C(=O)O)CCC1.[NH2-].[NH2-].[Pt+2] (library stock concentration (final ~1000-fold dilution): 10 mM water),IRF Lucia reporter activity,RAW-Dual [1]; [4],0.904
same,IRF Lucia reporter activity,RAW-Dual [1]; agonist: LPS (TLR4) 0.1 ug/mL,0.839
CCOC(=O)CC(=O)O (library stock concentration (final ~1000-fold dilution): 10 mM water),IRF Lucia reporter activity,RAW-Dual [1]; [4],1.46
same,IRF Lucia reporter activity,RAW-Dual [1]; agonist: LPS (TLR4) 0.1 ug/mL,0.876
CCOC(=O)CC(=O)O,IRF Lucia reporter activity,RAW-Dual [2]; [5],1.31
C=C1C(=O)OC2C1CCC(C)=CCCC1(C)OC21 (stereo not given) (library stock concentration (final ~1000-fold dilution): 1 mM),IRF Lucia reporter activity,RAW-Dual [1]; [4],0.336
same,IRF Lucia reporter activity,RAW-Dual [1]; agonist: LPS (TLR4) 0.1 ug/mL,0.46
O=c1c(O)c(-c2ccc(O)c(O)c2)oc2cc(O)cc(O)c12,IRF Lucia reporter activity,RAW-Dual [2]; [6],0.807
O=c1c(O)c(-c2ccc(O)c(O)c2)oc2cc(O)cc(O)c12 (library stock concentration (final ~1000-fold dilution): 10 mM),IRF Lucia reporter activity,RAW-Dual [1]; [4],0.566
same,IRF Lucia reporter activity,RAW-Dual [1]; agonist: LPS (TLR4) 0.1 ug/mL,0.6
O=C(c1cncc(Br)c1)N1CCC(N2CCCC2)CC1 (library stock concentration (final ~1000-fold dilution): 10 mM),IRF Lucia reporter activity,RAW-Dual [1]; [4],0.995
same,IRF Lucia reporter activity,RAW-Dual [1]; agonist: LPS (TLR4) 0.1 ug/mL,0.755
O=C(c1cncc(Br)c1)N1CCC(N2CCCC2)CC1,IRF Lucia reporter activity,RAW-Dual [2]; [6],1.03
O=C(Nc1ccc([N+](=O)[O-])cc1O)Nc1ccccc1Br (library stock concentration (final ~1000-fold dilution): 10 mM),IRF Lucia reporter activity,RAW-Dual [3]; [4],0.209
same,IRF Lucia reporter activity,RAW-Dual [3]; agonist: LPS (TLR4) 0.1 ug/mL,1.5
CC1CCCC(C)N1 (stereo not given) (library stock concentration (final ~1000-fold dilution): 10 mM),IRF Lucia reporter activity,RAW-Dual [1]; [4],1.02
same,IRF Lucia reporter activity,RAW-Dual [1]; agonist: LPS (TLR4) 0.1 ug/mL,1.28
CC1CCCC(C)N1 (stereo not given),IRF Lucia reporter activity,RAW-Dual [2]; [6],1.1
O=C(O)CCCN1CCC(OC(c2ccc(Cl)cc2)c2ccccn2)CC1.O=S(=O)(O)c1ccccc1 (stereo not given),IRF Lucia reporter activity,RAW-Dual [2]; [6],1.05
O=C(O)CCCN1CCC(OC(c2ccc(Cl)cc2)c2ccccn2)CC1.O=S(=O)(O)c1ccccc1 (stereo not given) (library stock concentration (final ~1000-fold dilution): 10 mM),IRF Lucia reporter activity,RAW-Dual [1]; [4],1.06
same,IRF Lucia reporter activity,RAW-Dual [1]; agonist: LPS (TLR4) 0.1 ug/mL,0.914
O.c1cnc2c(c1)ccc1cccnc12,IRF Lucia reporter activity,RAW-Dual [2]; [6],1.31
O.c1cnc2c(c1)ccc1cccnc12 (library stock concentration (final ~1000-fold dilution): 10 mM),IRF Lucia reporter activity,RAW-Dual [1]; [4],0.918
same,IRF Lucia reporter activity,RAW-Dual [1]; agonist: LPS (TLR4) 0.1 ug/mL,1.02
CCOC(=O)C(CCc1ccccc1)NC(C)C(=O)N1Cc2cc(OC)c(OC)cc2CC1C(=O)O.Cl (stereo not given) (library stock concentration (final ~1000-fold dilution): 10 mM),IRF Lucia reporter activity,RAW-Dual [1]; [4],1.04
same,IRF Lucia reporter activity,RAW-Dual [1]; agonist: LPS (TLR4) 0.1 ug/mL,1.04
CCOC(=O)C(CCc1ccccc1)NC(C)C(=O)N1Cc2cc(OC)c(OC)cc2CC1C(=O)O.Cl (stereo not given),IRF Lucia reporter activity,RAW-Dual [2]; [6],0.973
CC1(C)CC[C@]2(C(=O)O)CC[C@]3(C)[C@H](C(=O)C=C4[C@@]5(C)C=C(C#N)C(=O)C(C)(C)[C@@H]5CC[C@]43C)[C@@H]2C1 (library stock concentration (final ~1000-fold dilution): 10 mM),IRF Lucia reporter activity,RAW-Dual [1]; [4],0.606
same,IRF Lucia reporter activity,RAW-Dual [1]; agonist: LPS (TLR4) 0.1 ug/mL,0.0177
Cl.Cl.OCCOCCN1CCN(C(c2ccccc2)c2ccc(Cl)cc2)CC1 (stereo not given),IRF Lucia reporter activity,RAW-Dual [2]; [6],1.16
Cl.Cl.OCCOCCN1CCN(C(c2ccccc2)c2ccc(Cl)cc2)CC1 (stereo not given) (library stock concentration (final ~1000-fold dilution): 10 mM),IRF Lucia reporter activity,RAW-Dual [1]; [4],0.828
same,IRF Lucia reporter activity,RAW-Dual [1]; agonist: LPS (TLR4) 0.1 ug/mL,1.22
COc1cccc(C=NCCN=Cc2cccc(OC)c2[O-])c1[O-].[Cl-].[Mn+2] (library stock concentration (final ~1000-fold dilution): 10 mM),IRF Lucia reporter activity,RAW-Dual [1]; [4],1.06
same,IRF Lucia reporter activity,RAW-Dual [1]; agonist: LPS (TLR4) 0.1 ug/mL,0.762
COc1cccc(C=NCCN=Cc2cccc(OC)c2[O-])c1[O-].[Cl-].[Mn+2],IRF Lucia reporter activity,RAW-Dual [2]; [6],0.946
Cc1cc(C(=O)C2=C(O)C(=O)N(CCCN3CCOCC3)C2c2ccncc2)ccc1OCc1ccccc1 (stereo not given) (library stock concentration (final ~1000-fold dilution): 10 mM),IRF Lucia reporter activity,RAW-Dual [1]; [4],1.08
same,IRF Lucia reporter activity,RAW-Dual [1]; agonist: LPS (TLR4) 0.1 ug/mL,1.12
N#Cc1ccc(COCC2OC(n3c(NCc4ccc(Cl)c(Cl)c4)nc4c(N)ncnc43)C(O)C2O)cc1 (stereo not given) (library stock concentration (final ~1000-fold dilution): 10 mM),IRF Lucia reporter activity,RAW-Dual [1]; [4],1.04
same,IRF Lucia reporter activity,RAW-Dual [1]; agonist: LPS (TLR4) 0.1 ug/mL,1.12
CCN1CCN(Cc2ccc(Nc3ncc(F)c(-c4cc(F)c5nc(C)n(C(C)C)c5c4)n3)nc2)CC1 (library stock concentration (final ~1000-fold dilution): 10 mM),IRF Lucia reporter activity,RAW-Dual [1]; [4],0.148
same,IRF Lucia reporter activity,RAW-Dual [1]; agonist: LPS (TLR4) 0.1 ug/mL,0.13
CCN1CCN(Cc2ccc(Nc3ncc(F)c(-c4cc(F)c5nc(C)n(C(C)C)c5c4)n3)nc2)CC1,IRF Lucia reporter activity,RAW-Dual [2]; [6],0.148

# — the supplement of paper PMC10037445
